Source: PubChem BioAssay AID1794842 (National Center for Advancing Translational Sciences (NCATS), 2023)
Out of some 2,800 compounds screened, fewer than 10 were called active. Calls come from the whole dose curve; as a rule, active = well fitted curve in the direction sought with a large enough effect; inconclusive = small, poorly fitted or top-dose-only effect, or another doubt; inactive = no such curve, though single readings can be large or run the other way. Some of the results follow.

Target: Metallo-beta-lactamase type 2 (Klebsiella pneumoniae) (UniProt C7C422)
Sequence of UniProt C7C422 (C7C422 whole entry, looked up): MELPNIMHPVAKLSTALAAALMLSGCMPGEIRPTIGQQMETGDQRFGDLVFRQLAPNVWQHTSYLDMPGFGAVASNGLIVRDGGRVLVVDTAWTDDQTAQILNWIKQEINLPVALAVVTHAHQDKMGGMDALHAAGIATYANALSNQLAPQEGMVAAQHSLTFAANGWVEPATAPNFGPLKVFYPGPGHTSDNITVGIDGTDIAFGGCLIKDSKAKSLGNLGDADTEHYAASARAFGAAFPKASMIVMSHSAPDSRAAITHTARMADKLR
Assay: qHTS to identify inhibitors of the New Delhi Metallo-beta-lactamase (NDM): Meropenem screen against the machine-based learning selections. Note: % of control where 0% means no effect.
Conditions: Purified NDM-1, meropenem hydrolysis, absorbance 300 nm; at 38.4 µM (top of the series) unless noted
How it was run: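 NDM-1 (2 nM final) in 50 mM HEPES pH 7.0, 1 uM Zn2SO4, 0.01% Tween20 was preincubated with compounds for >30 min. Nitrocefin (16.7 uM final) was read at 485 nm after 15 min, and meropenem (50 uM final) at 300 nm after 30 min.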

Row | Structure (SMILES) | activity change, negative = inhibition
1 | COc1ccccc1CNC(=O)c1c(OCC(C)C)cc(=O)n2c1CCCCC2 | inactive: 2.69%
2 | Cc1ccc(C2Cn3nnc(-c4noc(-c5ccncc5)n4)c3CO2)cc1 (stereo unspecified) | inactive: -0.101%
3 | CCN1c2cc(C(=O)Nc3ccc(C)c(C)c3)ccc2C(=O)N2CCCCC21 (stereo unspecified) | inactive: 1.15%
4 | O=C(N[C@H](c1ccccn1)C1CC(O)C1)c1ccc2c(c1)ncn2CCO (stereo partly specified) | inactive: 0.183%
5 | O=C(c1ccoc1)N1CCCC(CCc2ccc(F)c(F)c2)C1 (stereo unspecified) | inactive: -0.603%
6 | CC[C@H]1CN(C(=O)NC2CCCCC2)CC[C@H]1CC(=O)Nc1nccs1 | inactive: 29.4% [at 57.5 µM]
7 | Cn1cc(CN2CCOC[C@H]2c2nc(C(C)(C)C)co2)c2ccccc21 | inactive: 3.07% [at 57.5 µM]
8 | COCCC1(NS(C)(=O)=O)CCN(C(=O)c2cccc(C#N)c2)CC1 | inactive: 0.131%
9 | Cc1cc(C)n2ncc(CN3CCCC3c3nc(-c4ccncc4)no3)c2n1 (stereo unspecified) | inactive: -0.923%
10 | Cc1nn(-c2ccccc2)nc1C(=O)N[C@H](C)c1onc(-c2cccnc2)c1C(=O)O | inactive: 10.3%
11 | O=C(O)C[C@@H]1CCN(C(=O)C2CCCC2)C[C@@H]1CCN1CCN(c2ccccn2)CC1 | inactive: 42.8% [at 57.5 µM]
12 | O=C1NC[C@@H](CCC(=O)N2CCCC2)N2C[C@@H](NCc3cccc(Cl)c3)C[C@@H]12 | inactive: -0.342% [at 57.5 µM]
13 | Cc1cc(C(=O)N[C@@H]2C[C@H](Cn3cc(C4CC4)nn3)[C@@H](O)[C@H]2O)no1 | inactive: 30.9% [at 57.5 µM]
14 | Cc1ccn2c(C(=O)N[C@H](Cc3ccccn3)C3CC(O)C3)nnc2n1 (stereo partly specified) | inactive: 16.3%
15 | CO[C@@H]1CO[C@H]2[C@@H]1OC[C@@H]2NC(=O)Nc1cccc(C(F)(F)F)c1 | inactive: 3.28% [at 57.5 µM]
16 | Cc1ccc(C(=O)N2CC3CC(C2)[C@H]2CCCC(=O)N2C3)s1 (stereo partly specified) | inactive: 4.05%
17 | CC(=O)N1CCCN(C(=O)[C@@H]2Cc3cn(C)c4cccc(c34)[C@H](CC(C)C)N2)CC1 | inactive: 5.93% [at 57.5 µM]
18 | O=C1Cc2c(-c3cccc(CO)c3)n[nH]c2CN1c1ccccc1 | inactive: 5.96% [at 57.5 µM]
19 | Nc1nc(CCC(=O)N2CC[C@@H](NC(=O)c3cccnc3)[C@H](O)C2)cs1 | inactive: -2.13%
20 | COCCN1C(=O)[C@@H]2C[C@@H](CN2Cc2ccc(OC)nc2)Oc2ccccc21 | inactive: -1.04% [at 57.5 µM]
21 | COc1cccc2c1OCC(C(=O)N1CC(Oc3ccccc3C)C1)C2 (stereo unspecified) | inactive: 0.534%
